# Laboratory results reported in the antibiotic and cytotoxicity screens of Wong et al. (2023).
# This is one part of the list.
# Tested on: HSkMC (human skeletal muscle cells)
# Assay: cytotoxicity call (relative viability < 0.9)
# Settings: 10 µM
row,SMILES,cytotoxicity call
1,CC(C)C#Cc1ccc2c(c1)O[C@@H](CN(C)S(=O)(=O)c1cn(C)cn1)[C@H](C)CN([C@@H](C)CO)S2(=O)=O,inactive
2,COc1ccc(NC(=O)N(C)C[C@H]2Oc3ccc(NC(=O)CCN4CCOCC4)cc3CC(=O)N([C@H](C)CO)C[C@@H]2C)cc1,inactive
3,C[C@H]1CN([C@@H](C)CO)C(=O)c2cc(NC(=O)C3CC3)ccc2O[C@@H]1CN(C)S(=O)(=O)c1ccc(Cl)cc1,inactive
4,CC(CS)C(=O)N1CCCC1C(=O)O (centres undefined),inactive
5,C[C@H]1CN([C@@H](C)CO)C(=O)Cc2cc(NC(=O)Cn3cnnn3)ccc2O[C@@H]1CN(C)C(=O)NC1CCCCC1,inactive
6,C[C@@H]1CCCCO[C@H](CN(C)S(=O)(=O)c2cn(C)cn2)[C@@H](C)CN([C@@H](C)CO)C(=O)c2cc(NC(=O)Nc3cccc4ccccc34)ccc2O1,inactive
7,COc1cccc(C#Cc2ccc3c(c2)O[C@H](CN(C)S(=O)(=O)c2ccccc2F)[C@H](C)CN([C@@H](C)CO)S3(=O)=O)c1,inactive
8,Cc1noc(C)c1NC(=O)Nc1ccc2c(c1)C(=O)N([C@H](C)CO)C[C@@H](C)[C@@H](CN(C)Cc1ccc3c(c1)OCO3)OCCCC[C@H](C)O2,inactive
9,CCCNC(=O)[C@@H]1c2ccccc2C(=O)N(Cc2cc(C(F)(F)F)cc(C(F)(F)F)c2)[C@H]1c1ccc(CO)cc1,inactive
10,COc1ccc(NC(=O)N(C)C[C@@H]2OCCCC[C@@H](C)Oc3ccc(NC(=O)Cc4ccccc4)cc3C(=O)N([C@H](C)CO)C[C@@H]2C)cc1,inactive
11,COCC(=O)N1C[C@H](C)[C@H](OC)CN(C)C(=O)c2cc(NC(=O)Nc3ccccc3)ccc2OC[C@H]1C,inactive
12,C[C@H](CO)N1C[C@H](C)[C@H](CN(C)S(=O)(=O)c2cccs2)OCCCC[C@H](C)Oc2ccc(NS(=O)(=O)c3ccc(Cl)cc3)cc2C1=O,inactive
13,C[C@@H]1CN([C@H](C)CO)C(=O)c2cc(NC(=O)CCCN(C)C)ccc2O[C@@H]1CN(C)Cc1ccncc1,inactive
14,COc1cccc(NC(=O)N(C)C[C@H]2Oc3ncc(C#Cc4ccncc4)cc3C(=O)N([C@@H](C)CO)C[C@@H]2C)c1,inactive
15,CC(C)(O)C#Cc1cccc(-c2nc(C(=O)Nc3ccc(-c4ccccc4)cc3)cc3c2[C@@H](CCO)N(S(=O)C(C)(C)C)C3)c1 (some centres undefined),inactive
16,C[C@@H]1CN([C@@H](C)CO)C(=O)c2cc(NS(=O)(=O)c3cn(C)cn3)ccc2O[C@H]1CN(C)C(=O)NC1CCCCC1,inactive
17,C[C@H](CO)N1C[C@H](C)[C@@H](CN(C)S(C)(=O)=O)OCCCC[C@H](C)Oc2ccc(NS(=O)(=O)c3ccccc3)cc2C1=O,inactive
18,C[C@@H]1CN([C@@H](C)CO)C(=O)Cc2cc(NC(=O)c3ccncc3)ccc2O[C@@H]1CN(C)S(=O)(=O)c1ccc(F)cc1,inactive
19,C[C@@H]1CN([C@H](C)CO)C(=O)Cc2cc(NS(=O)(=O)c3ccccc3)ccc2O[C@H]1CN(C)S(=O)(=O)c1ccc(F)cc1,inactive
20,C[C@H](CO)N1C[C@H](C)[C@@H](CN(C)S(=O)(=O)c2cn(C)cn2)Oc2ccc(NC(=O)Cn3cnnn3)cc2C1=O,inactive
21,CC[C@@H](C)n1[nH]c(=O)cc1N,inactive
22,CC(OC1OCCN(C(C)c2nc(=O)[nH][nH]2)C1c1ccc(F)cc1)c1cc(C(F)(F)F)cc(C(F)(F)F)c1 (centres undefined),inactive
23,C[C@@H](Oc1cc(-n2cnc3ccc(CN4CCN(C)CC4)cc32)sc1C(N)=O)c1ccccc1C(F)(F)F,active
24,CCCN(C)C[C@H]1OCCCC[C@@H](C)Oc2ccc(NS(=O)(=O)c3ccc(Cl)cc3)cc2C(=O)N([C@@H](C)CO)C[C@H]1C,inactive
25,CCOC(=O)C[C@@H](N)c1ccccc1Cl,inactive
26,Cc1ccc(S(=O)(=O)Nc2ccc3c(c2)C(=O)N([C@@H](C)CO)C[C@@H](C)[C@@H](CN(C)Cc2ccccc2)OCCCC[C@H](C)O3)cc1,inactive
27,COc1ccccc1S(=O)(=O)N[C@@H]1CC[C@H](CCNC(=O)C2CCOCC2)O[C@H]1CO,inactive
28,C[C@@H]1CN([C@@H](C)CO)C(=O)Cc2cc(NC(=O)Cc3cn(C)c4ccccc34)ccc2O[C@H]1CN(C)Cc1ccc(-c2ccccc2)cc1,inactive
29,COc1ccc(NC(=O)N(C)C[C@H]2OCCCC[C@H](C)Oc3ccc(NC(=O)Cc4ccccc4)cc3C(=O)N([C@H](C)CO)C[C@@H]2C)cc1,inactive

# Tested on: HepG2
# Assay: cytotoxicity call (relative viability < 0.9)
# Settings: 10 µM
row,SMILES,cytotoxicity call
1,O=C([O-])CCNC(=O)c1ccc(N=Nc2ccc(O)c(C(=O)[O-])c2)cc1.[Na+].[Na+],inactive
2,C[C@H](CO)N1C[C@H](C)[C@H](CN(C)S(=O)(=O)c2cn(C)cn2)Oc2ccc(NC(=O)CCCCCC(=O)Nc3ccccc3N)cc2C1=O,inactive
3,O=C1CN(S(=O)(=O)Cc2ccccc2)C[C@@H]2[C@@H](c3ccc(C#Cc4cccc(F)c4)cc3)[C@@H](CO)N12,active
4,C[C@@H]1CN([C@H](C)CO)C(=O)Cc2cc(NC(=O)c3ccncc3)ccc2O[C@H]1CN(C)Cc1ccc(C(=O)O)cc1,inactive
5,C[C@H]1CN([C@@H](C)CO)C(=O)c2cccc(NS(=O)(=O)c3ccccc3)c2O[C@H]1CN(C)CC1CC1,inactive
6,Cc1ccc(S(=O)(=O)Nc2ccc3c(c2)CC(=O)N([C@H](C)CO)C[C@@H](C)[C@@H](CN(C)C(=O)Nc2cccc4ccccc24)O3)cc1,inactive
7,COc1ccc(S(=O)(=O)N(C)C[C@H]2Oc3ccc(NS(=O)(=O)c4cn(C)cn4)cc3C(=O)N([C@H](C)CO)C[C@@H]2C)cc1,inactive
8,C[C@@H]1CN([C@H](C)CO)C(=O)c2cccc(NC(=O)Nc3ccc(C(F)(F)F)cc3)c2O[C@@H]1CN(C)C(=O)NC1CCCCC1,active
9,Cc1cc(O)c2c(c1)C(=O)c1cc(O)cc(O)c1C2=O,inactive
10,Cc1noc(C)c1NC(=O)N(C)C[C@@H]1Oc2ccc(NS(=O)(=O)c3cn(C)cn3)cc2C(=O)N([C@@H](C)CO)C[C@@H]1C,inactive
11,CC(C)CC#Cc1ccc2c(c1)O[C@@H](CN(C)C(=O)c1cccnc1)[C@H](C)CN([C@@H](C)CO)S2(=O)=O,inactive
12,CC(C)C#Cc1ccc2c(c1)O[C@@H](CN(C)S(=O)(=O)c1cn(C)cn1)[C@H](C)CN([C@@H](C)CO)S2(=O)=O,inactive
13,COc1ccc(NC(=O)N(C)C[C@H]2Oc3ccc(NC(=O)CCN4CCOCC4)cc3CC(=O)N([C@H](C)CO)C[C@@H]2C)cc1,inactive
14,C[C@H]1CN([C@@H](C)CO)C(=O)c2cc(NC(=O)C3CC3)ccc2O[C@@H]1CN(C)S(=O)(=O)c1ccc(Cl)cc1,inactive
15,CC(CS)C(=O)N1CCCC1C(=O)O (centres undefined),inactive
16,C[C@H]1CN([C@@H](C)CO)C(=O)Cc2cc(NC(=O)Cn3cnnn3)ccc2O[C@@H]1CN(C)C(=O)NC1CCCCC1,inactive
17,C[C@@H]1CCCCO[C@H](CN(C)S(=O)(=O)c2cn(C)cn2)[C@@H](C)CN([C@@H](C)CO)C(=O)c2cc(NC(=O)Nc3cccc4ccccc34)ccc2O1,inactive
18,COc1cccc(C#Cc2ccc3c(c2)O[C@H](CN(C)S(=O)(=O)c2ccccc2F)[C@H](C)CN([C@@H](C)CO)S3(=O)=O)c1,inactive

row,SMILES,cytotoxicity call
1,Cc1noc(C)c1NC(=O)Nc1ccc2c(c1)C(=O)N([C@H](C)CO)C[C@@H](C)[C@@H](CN(C)Cc1ccc3c(c1)OCO3)OCCCC[C@H](C)O2,inactive
2,CCCNC(=O)[C@@H]1c2ccccc2C(=O)N(Cc2cc(C(F)(F)F)cc(C(F)(F)F)c2)[C@H]1c1ccc(CO)cc1,inactive
3,COc1ccc(NC(=O)N(C)C[C@@H]2OCCCC[C@@H](C)Oc3ccc(NC(=O)Cc4ccccc4)cc3C(=O)N([C@H](C)CO)C[C@@H]2C)cc1,inactive
4,COCC(=O)N1C[C@H](C)[C@H](OC)CN(C)C(=O)c2cc(NC(=O)Nc3ccccc3)ccc2OC[C@H]1C,inactive
5,C[C@H](CO)N1C[C@H](C)[C@H](CN(C)S(=O)(=O)c2cccs2)OCCCC[C@H](C)Oc2ccc(NS(=O)(=O)c3ccc(Cl)cc3)cc2C1=O,inactive
6,C[C@@H]1CN([C@H](C)CO)C(=O)c2cc(NC(=O)CCCN(C)C)ccc2O[C@@H]1CN(C)Cc1ccncc1,inactive
7,COc1cccc(NC(=O)N(C)C[C@H]2Oc3ncc(C#Cc4ccncc4)cc3C(=O)N([C@@H](C)CO)C[C@@H]2C)c1,active
8,CC(C)(O)C#Cc1cccc(-c2nc(C(=O)Nc3ccc(-c4ccccc4)cc3)cc3c2[C@@H](CCO)N(S(=O)C(C)(C)C)C3)c1 (some centres undefined),active
9,C[C@@H]1CN([C@@H](C)CO)C(=O)c2cc(NS(=O)(=O)c3cn(C)cn3)ccc2O[C@H]1CN(C)C(=O)NC1CCCCC1,inactive
10,C[C@H](CO)N1C[C@H](C)[C@@H](CN(C)S(C)(=O)=O)OCCCC[C@H](C)Oc2ccc(NS(=O)(=O)c3ccccc3)cc2C1=O,inactive
11,C[C@@H]1CN([C@@H](C)CO)C(=O)Cc2cc(NC(=O)c3ccncc3)ccc2O[C@@H]1CN(C)S(=O)(=O)c1ccc(F)cc1,inactive
12,C[C@@H]1CN([C@H](C)CO)C(=O)Cc2cc(NS(=O)(=O)c3ccccc3)ccc2O[C@H]1CN(C)S(=O)(=O)c1ccc(F)cc1,inactive
13,C[C@H](CO)N1C[C@H](C)[C@@H](CN(C)S(=O)(=O)c2cn(C)cn2)Oc2ccc(NC(=O)Cn3cnnn3)cc2C1=O,inactive
14,CC[C@@H](C)n1[nH]c(=O)cc1N,inactive
15,CC(OC1OCCN(C(C)c2nc(=O)[nH][nH]2)C1c1ccc(F)cc1)c1cc(C(F)(F)F)cc(C(F)(F)F)c1 (centres undefined),active
16,C[C@@H](Oc1cc(-n2cnc3ccc(CN4CCN(C)CC4)cc32)sc1C(N)=O)c1ccccc1C(F)(F)F,active
17,CCCN(C)C[C@H]1OCCCC[C@@H](C)Oc2ccc(NS(=O)(=O)c3ccc(Cl)cc3)cc2C(=O)N([C@@H](C)CO)C[C@H]1C,active
